Results: the RNAGym collection of RNA variant scans (doi:10.1073/pnas.2313332121)
This sample is rich in variants without activity.

B1: TPR 5TU (parent)
chain: GGAUCUUCUCGAUCUAACAAAAAAGACAAAUCUGCCACAAAGCUUGAGAGCAUCUUCGGAUGCAGAGGCGGCAGCCUUCGGUGGCGCGAUAGCGCCAACGUUCUCAACUAUGACACGCAAAACGCGUGCUCCGUUGAAUGGAGUUUAUCAUG

Variants of: B1
Assay: polymerase ribozyme fitness, log enrichment relative to wild type (log ratio); higher = more active; in vitro selection for triplet polymerase activity
Method in brief: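 Each subunit of a heterodimeric triplet polymerase ribozyme was represented by a PCR-built, transcribed mutant library that underwent triplicate single-round in vitro selection with frozen incubation at −7 °C. Extended constructs were recovered by gel excision, streptavidin-bead capture and RT-PCR, and Illumina sequencing of input and output libraries kept genotypes with ≥10 input reads and ≥1 read per output. Fitness is the logarithm of genotype enrichment relative to wild-type enrichment, from inverse-variance-weighted replicate averages, with a logarithm base of 2.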

Row | Variant | polymerase ribozyme fitness (log ratio)
1 | A24G C36A G48A C75G G92U | ≤ -4.2
2 | A24U A52G A106G G143A | -1.81
3 | A23U A40G C87A G141U | ≤ -4.2
4 | A23U C76A C99A U134G | ≤ -4.2
5 | G25U A39C C51U A106G C108U | ≤ -4.2
6 | G25C G83C C87G A91G | ≤ -4.2
7 | A24G A66G C85A A91U U127C G133A U134A | ≤ -4.2
8 | A24C A30C G65C G71A G80C U82A C95U | ≤ -4.2
9 | A24C G48A G83A | ≤ -4.2
10 | A23U U134A G136A G143U A150G | ≤ -4.2
11 | A23U G68C C76G G80C A89U U148G | ≤ -4.2
12 | A24G A30G C35G U55G G65C A89U A106C U111G G140A U144A | ≤ -4.2
13 | A24C G25U A52G C85A G141C | ≤ -4.2
14 | A24G A29C A47G C85A C95U U135A A150G | ≤ -4.2
15 | A23U G48A A97U | ≤ -4.2
16 | A24C G67A G81C G88A | ≤ -4.2
17 | A24U A28C C54U C87U C95G G141C | ≤ -4.2
18 | A23G G86A A89C A106U A115C G136A U148A | ≤ -4.2
19 | A24G C96U A120G | ≤ -4.2
20 | A23U A64U G88C C93U C125U | ≤ -4.2
21 | A24U A26U G42U U78A A91U C93G A122C | ≤ -4.2

Row | Variant | polymerase ribozyme fitness (log ratio)
22 | A24C G58A G59A G62A G84C C87A G143A | ≤ -4.2
23 | A23U C32U A52C C72U U82G C129A | ≤ -4.2
24 | A23U C114U | -3.88
25 | A24C A28C A49U A60G C75A C96A | ≤ -4.2
26 | G25A A41C U45G G59C U90A C93A | ≤ -4.2
27 | A24U A49G A52C U53A U55A C69A | ≤ -4.2
28 | A24G G68A A119U C149G A150U | ≤ -4.2
29 | G25C C27U G86A A107U C116U | ≤ -4.2
30 | A23U A64C G68C | ≤ -4.2
31 | A24G A30G G84U A122G | ≤ -4.2
32 | A24G C35G G50C G80U G86U C118G A138G | ≤ -4.2
33 | A24G G42C U82A A107G A113G | ≤ -4.2
34 | A24C C118U C125U | ≤ -4.2
35 | A24G A119G A121G A122U C129G | ≤ -4.2
36 | A24U G50A C108G C125A G141C | ≤ -4.2
37 | A23U G86U A89G C105G C129U | ≤ -4.2
38 | A24G A37U G58A U77C G84A C85G | ≤ -4.2
39 | A24U C69A A120G C131G | ≤ -4.2
40 | A23U A29G A41C U53A A64U C87G C118G A121U U145A | ≤ -4.2
41 | A23G C57A C63U G70C G74U U111C G140U A142C U148G | ≤ -4.2
42 | A24C U53C C118U A142C | ≤ -4.2

Row | Variant | polymerase ribozyme fitness (log ratio)
43 | A23U C54A G83U U102G | ≤ -4.2
44 | A23U G42U C75G G80C | ≤ -4.2
45 | A23U C54U G92C | ≤ -4.2
46 | A24U A64G C72U U102G U151C | ≤ -4.2
47 | A24U U53A G81A C116G A138G | ≤ -4.2
48 | G25U C27U C93U G143U | ≤ -4.2
49 | A24G C35U A150C | ≤ -4.2
50 | G25C A49C C51U U53G C54A C116U G141A G152U | ≤ -4.2
51 | G25C U44A G62C C79U G92U A147G | ≤ -4.2
52 | A24U A26C A40C A73U G88C C108U | ≤ -4.2
53 | A23G C54A U55G G58A G59C | -4.08
54 | G25C C27G A41C C51U A52G A64C C95A G141U | ≤ -4.2
55 | A24U A47C G71C A97U A98G C129G | ≤ -4.2
56 | A24G C27G A60U A89G C96A | ≤ -4.2
57 | A24G A26U C57U C85U G86U C118A A142C | ≤ -4.2
58 | A23U U53A C96A C114G G143A U146G | ≤ -4.2
59 | A24U G86A | -1.43
60 | G25C C32A G48A C79U G92A C93U A107C C132A A137C | ≤ -4.2
61 | A23U A29U G59A A60C A142U | ≤ -4.2
62 | A24U A29G G68C G86U C105G G128A A137U U151C | ≤ -4.2
63 | A24U U135C | -2.21

Row | Variant | polymerase ribozyme fitness (log ratio)
64 | A23U G50C C76A G84A U90G C129A A137G | ≤ -4.2
65 | A24G G48U U56A C132U | ≤ -4.2
66 | G25C A52G C54U C63A C116U U135C | ≤ -4.2
67 | G25A G42A G83U | ≤ -4.2
68 | G25C G46A U144C | -4.12
69 | A23G G92U C118G A150G | ≤ -4.2
70 | A24G G50U C95U C96A A106C U139C G140U | ≤ -4.2
71 | A24U A49C G65C U77C G83A G86A U135A | ≤ -4.2
72 | G25A A29C C57A C75A U77C G80A G92A C93G | ≤ -4.2
73 | A23U G25U A29U C43U G58U G86A A107G | ≤ -4.2
74 | A24U U44A G70A G74C C93G | ≤ -4.2
75 | G25C A39C C76A C79U C87A A110U C114U | ≤ -4.2
76 | A24C A41U G86C C87G G88A A150C | ≤ -4.2
77 | A24C U55G C76A G83U C95U C116A C118G U144A | ≤ -4.2
78 | G25C G83U | -2.85
79 | A24U A28C G59A C85G A97G A121G G133A U139G A150G | ≤ -4.2
80 | G25C C85G C103U | ≤ -4.2
81 | A24C A30U C43A C57U C87G | ≤ -4.2
82 | A24U A40C A49C C72G G83U C87G U139G U144C U151G | ≤ -4.2
83 | G25C A73G C87U G88U A110U G152C | ≤ -4.2
